Measured values from PubChem BioAssay AID1347055 (National Center for Advancing Translational Sciences (NCATS), 2019).
The campaign covered roughly 54,000 compounds. About 120 (0.22%) were called active. This list was built around the results that the source calls inconclusive (neither active nor inactive); the mix of calls is not that of the screen. The call rests on the fitted dose curve; in most records, active means well fitted inhibition curve with a large enough effect; inconclusive means small, poorly fitted or top-dose-only effect, or effect the other way; inactive means flat fitted curve, though single readings scatter. Potencies of inconclusive entries are left out as doubtful fits.

Target: Fumarate hydratase, mitochondrial (Homo sapiens) (UniProt P07954)
Sequence of UniProt P07954 (P07954 whole entry, looked up): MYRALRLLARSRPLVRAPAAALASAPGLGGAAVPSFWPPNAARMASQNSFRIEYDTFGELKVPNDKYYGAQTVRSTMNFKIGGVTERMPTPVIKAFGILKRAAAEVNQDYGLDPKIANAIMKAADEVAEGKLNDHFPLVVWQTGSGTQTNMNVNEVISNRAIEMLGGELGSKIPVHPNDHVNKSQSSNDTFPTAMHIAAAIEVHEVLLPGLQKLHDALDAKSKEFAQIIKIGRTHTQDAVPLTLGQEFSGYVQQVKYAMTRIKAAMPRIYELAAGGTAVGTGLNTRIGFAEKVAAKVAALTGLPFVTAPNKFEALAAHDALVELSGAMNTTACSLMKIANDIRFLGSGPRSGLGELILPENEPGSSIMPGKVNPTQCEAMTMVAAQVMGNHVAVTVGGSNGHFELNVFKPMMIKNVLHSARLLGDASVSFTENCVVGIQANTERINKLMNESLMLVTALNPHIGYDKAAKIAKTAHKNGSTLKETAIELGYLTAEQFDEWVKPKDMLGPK
Assay: Identification of activators of human fumarate hydratase by quantitative high-throughput screening; further: the screen sought activators but most active calls are inhibition curves; nearly all actives have a fitted effect of over 45% in size
Conditions: FH coupled MDH/diaphorase resazurin fluorescence, 15 min; activity change, negative = inhibition: at 79.9 µM (top of the series)
Source text: Fumarate hydratase (FH) is a metabolic enzyme that is part of the Krebs-cycle, and reversibly catalyzes the hydration of fumarate to malate. Mutations of the FH gene have been associated with fumarate hydratase deficiency (FHD), hereditary leiomyomatosis, renal cell cancer (HLRCC), and other diseases. Currently there are no high-quality small molecule probes for studying human fumarate hydratase. To address this, we developed a quantitative high throughput screening (qHTS) FH assay and screened a total of 57,037 compounds in dose-response. While no inhibitors of FH were confirmed, a series of phenyl-pyrrolo-pyrimidine-diones (12 compounds) were identified as activators of human fumarate hydratase. […] The binding of two compounds from the series to human fumarate hydratase was confirmed by microscale thermophoresis. The low hit rate in this screening campaign confirmed that FH is a "tough target" to modulate, and the small molecule activators of human fumarate hydratase reported here may serve as a starting point for further optimization and development into cellular probes of human FH and potential drug candidates.
For primary high-throughput screen, 3 ul of FH solution (containing 13.33nM human fumarate hydratase, 13.33IU/ml malic dehydrogenase, 0.2mM NAD, 0.067mg/ml diaphorase and 0.067mM resazurin in the assay buffer (50 mM Tris pH 8.0, 5 mM MgCl2, 0.01% Brij 3) was dispensed into each well in a black solid bottom 1536-well assay plate (Greiner Bio-One) using a BioRAPTR FRD dispenser (Beckman Coulter, Brea, CA). A 1536-well pintool dispenser outfitted with 20 nl pins (Wako Automation, San Diego, CA) was used to transfer 20 nL of DMSO-solubilized compound (Cherrypick plates) to each 1536-well assay plate. Each compound was screened at five concentrations: 15 nM, 151 nM, 1.5 uM, 15.4 uM, 76.9 uM. Following compound transfer, plates were incubated in room temperature for 10 minutes. 1 uL of substrate solution containing fumaric acid (160 uM) was dispensed via BioRAPTR FRD to initiate the reaction. Plates were immediately transferred to a ViewLux microplate imager (PerkinElmer, Waltham, MA), and any resulting resorufin fluorescence was measured (exitation/emission, 525/598 nm) at 0 and 15 minutes. The exposure time is 1 second. Fluorescence from each well was normalized using enzyme-free and DMSO-treated control wells on each plate, and changes in fluorescence (delta RFU) were calculated using the difference in fluorescent signal for each well at 15 minutes versus 0 minutes.
On the % scale 0 is the no-effect control and ±100 the full control effect; potency means the concentration at half of the fitted maximal effect; tags describe the fitted curve by direction and shape.

Structure (SMILES) | Potency | activity change, negative = inhibition
Cc1ccccc1N(C)S(=O)(=O)c1nnc(NC(=O)c2ccco2)s1 | inconclusive [inhibitor, partial curve] | –
CC(C)n1cc(-c2ccc(Oc3ccccc3)cc2)c2c(N)ncnc21 | inconclusive [inhibitor, single point] | –
CCCN(CCC)C(=O)c1cc2c(=O)n3cccc(C)c3nc2s1 | inconclusive [inhibitor, partial curve, poor fit] | –
OCCn1cc(-c2cnc3nnn(Cc4ccc5ncccc5c4)c3n2)cn1 | inactive | –
Cc1ccsc1CCN1C(=O)N(c2ccccc2)C(=O)C1CC(=O)Nc1ccc(Cl)cc1 (stereo not given) | inconclusive [inhibitor, partial curve, poor fit] | –
COc1ccc(-c2nc3scc(CCNS(=O)(=O)c4ccc(Oc5ccccc5)cc4)n3n2)cc1OC | inconclusive [inhibitor, partial curve, poor fit] | –
CC(C)CC[C@@H](O)[C@](C)(O)[C@H]1CC[C@@]2(O)C3=CC(=O)[C@@H]4C[C@@H](O)[C@@H](O)C[C@]4(C)[C@H]3CC[C@]12C | – | inactive: -3.72%
CCN(CC)C(=O)c1sc2c(c1C)c(=O)n(Cc1ccccc1)c(=O)n2Cc1ccccc1C | inconclusive [inhibitor, partial curve, poor fit] | –
CC(Sc1nccn1C)C(=O)Nc1ccccc1C#N (stereo not given) | – | inactive: -3.11%
COc1ccc(C2c3[nH]c4ccccc4c3CCN2C(=O)CCC2CCCC2)cc1 (stereo not given) | inconclusive [inhibitor, partial curve] | –
CCC(Sc1nc2c(sc3ccccc32)c(=O)n1CCc1ccc(OC)c(OC)c1)C(=O)N(CC)CC (stereo not given) | inconclusive [inhibitor, single point] | –
Cc1nc(-c2ccc(S(=O)(=O)Nc3cc(Cl)ccc3C)cc2)co1 | – | inactive: -14.2%
COc1ccc2c(CNCCc3ccc(SC)cc3)c(C(=O)O)n(Cc3ccc(F)cc3)c2c1 | inconclusive [inhibitor, partial curve, poor fit] | –
COc1ccc(Cl)cc1NC(=O)c1c(NCc2ccc(C)o2)sc2c1CCC(C)C2 (stereo not given) | inconclusive [inhibitor, single point] | –
Cc1ccc(-c2cn3cccnc3n2)cc1NC(=O)C(C)(C)Oc1ccc(Cl)cc1 | inconclusive [inhibitor, partial curve, poor fit] | –
CC(=O)O[C@H]1CC[C@H](C)[C@@]2(C)[C@H](OC(C)=O)c3c(C)coc3C(=O)[C@H]12 | – | inactive: 0.636% [at 53.3 µM]
CCn1c2ccccc2c2cc(CN3CCN(Cc4ccc(Br)cc4)CC3)ccc21 | inconclusive [inhibitor, partial curve, poor fit] | –
COC(=O)c1cc(Nc2nc3ccccc3nc2NS(=O)(=O)c2ccc(C)cc2)ccc1Cl | inconclusive [inhibitor, partial curve] | –
CCOc1ccc(-n2c(SCC(=O)Nc3cc(C)ccc3C)nc3c([nH]c4ccccc43)c2=O)cc1 | – | inactive: 4.29%
O=C(Nc1cc(-c2ccccc2)sc1C(=O)O)c1cccc(F)c1 | inconclusive [inhibitor, partial curve, poor fit] | –

Structure (SMILES) | Potency | activity change, negative = inhibition
CCc1ccc2[nH]cc(S(=O)(=O)c3ccc(C(C)C)cc3)c(=O)c2c1 | – | inactive: 9.9%
Oc1ccccc1-c1nc(-c2cccs2)c(-c2cccs2)[nH]1 | inconclusive [inhibitor, partial curve, poor fit] | –
CO[C@@H]1[C@]2(O)C(=O)N3/C=C\C(C)(C)c4[nH]c5ccccc5c4/C=C\3C(=O)N2[C@]23[C@H](CO)C(C)(C)N2c2ccccc2[C@]13O | – | inactive: -1.22% [at 53.3 µM]
CCOc1ccc(-c2cn3c(n2)sc2cc(C(=O)NCCCN4CCCCCC4)ccc23)cc1 | inconclusive [inhibitor, single point] | –
COc1c(C)c(OCC(O)C(C)(C)O)cc2c1CNC2=O (stereo not given) | – | inactive: -1.94%
CC1CCN(C(=O)c2c(NC(=O)c3ccccc3Cl)sc3c2CCC(C(C)(C)C)C3)CC1 (stereo not given) | inconclusive [inhibitor, partial curve, poor fit] | –
Cc1ccc(CN2C(=O)C(O)(c3c(C)[nH]c4ccccc34)c3ccccc32)cc1 (stereo not given) | inconclusive [inhibitor, partial curve, poor fit] | –
Cc1nc2cc(-c3ccccc3)nn2c(C)c1CCC(=O)N1CCN(c2ccc(F)cc2)CC1 | – | inactive: -21.8%
CCOC(=O)Cn1c(=N)n(Cc2ccc(C(C)(C)C)cc2)c2ccccc21 | inconclusive [inhibitor, partial curve, poor fit] | –
Cc1cc(NS(=O)(=O)c2ccc3nc(-c4ccccc4)[nH]c3c2)ccc1Br | inconclusive [inhibitor, partial curve, poor fit] | –
CCn1c(=O)c2cc(C(=O)N(CCCOC(C)C)Cc3ccco3)sc2c2ccccc21 | inconclusive [inhibitor, partial curve] | –
Cc1ccc(CNC(=O)CSc2ncc(S(=O)(=O)c3ccc(Br)cc3)c(=O)[nH]2)cc1 | inconclusive [inhibitor, single point] | –
c1cc(NC2CCNCC2)nc(-c2cnc3ccccn23)c1 | inconclusive [inhibitor, single point] | –
CCN1C(=O)c2cccc3c(S(=O)(=O)Nc4ccc(O)c(C(=O)O)c4)ccc1c23 | active: 31.6 µM | –
C/C=C(\C)C(=O)OC[C@H]1O[C@@H](O[C@H]2[C@@H](O[C@H]3O[C@H](COC(=O)/C(C)=C/C)[C@@H](O)[C@H](O)[C@H]3O[C@@H]3O[C@H](CO)[C@@H](O)[C@H](OC(=O)/C(C)=C/C)[C@H]3O)O[C@H](COC(=O)/C(C)=C/C)[C@@H](O)[C@@H]2O)[C@H](O)[C@@H](O)[C@@H]1O | – | inactive: 7.18% [at 20.6 µM]
CCc1cccc2sc(N3CCN(C(=O)C4CC4)CC3)nc12 | – | inconclusive: -30.1% [inhibitor]
Cc1ccccc1C(C(=O)NC1CCCCC1)N(C(=O)Cn1ccnc1C)c1cccc(F)c1 (stereo not given) | inactive | –
Cc1cccc(C)c1OCCCCn1c(C2CC(=O)N(c3ccc(F)cc3)C2)nc2ccccc21 (stereo not given) | inconclusive [inhibitor, partial curve, poor fit] | –
C/C(=N/NC(=O)c1ccncc1)C(=O)O | – | inactive: 0.975% [at 53.3 µM]
CCC(C)c1ccc(OCC(=O)Nc2cccc3ccc(C)nc23)cc1 (stereo not given) | inconclusive [inhibitor, single point] | –

Structure (SMILES) | Potency | activity change, negative = inhibition
CCCCCCOc1ccc(/C=C/C(=O)Nc2sc3c(c2C(=O)OC)CCC3)cc1OC | – | inactive: -11.7%
Oc1ccc(-c2nc(-c3ccc(F)cc3)c(-c3ccncc3)[nH]2)cc1 | inconclusive [inhibitor, single point] | –
O=C(O)C(Cc1ccccc1)NC(=O)C1CCCN1 (stereo not given) | – | inactive: 7.33%
CCc1nc2ccc(C(=O)N3CCN(c4ccccc4F)CC3)cc2nc1CC | – | inconclusive: -30.4% [inhibitor]
CCOC(=O)C1=C(CN2CCN(c3ccc(Cl)cc3)CC2)NC(=O)NC1c1ccc(OC)cc1 (stereo not given) | inconclusive [inhibitor, partial curve, poor fit] | –
Cc1cc(C)c(S(=O)(=O)Nc2ccc3oc(C)c(C(=O)OC(C)C)c3c2)cc1C | inconclusive [inhibitor, partial curve, poor fit] | –
Cc1c(C)n(Cc2ccccc2)c2ccc(C(=O)NCc3ccccc3F)cc12 | inconclusive [inhibitor, partial curve, poor fit] | –
COc1ccc(-c2nc3c(c(SCC(=O)Nc4cccc(O)c4)n2)Cc2c(CO)cnc(C)c2O3)cc1 | inconclusive [inhibitor, single point] | –
CC(C)c1ccc(C2Sc3ccccc3NC3=C2C(=O)c2ccccc23)cc1 (stereo not given) | inconclusive [inhibitor, partial curve] | –
CCOC(=O)c1cnc2ccc(OCC)cc2c1N1CCN(c2ccccc2F)CC1 | inconclusive [inhibitor, partial curve, poor fit] | –
O=C(NC1CCCCC1)c1ccc(CSc2nc3ccncc3n2Cc2ccccc2F)cc1 | inconclusive [inhibitor, single point] | –
CCCCN(CC)C(=O)C1CCCN(c2ncnc3c2nc2n3CCCCC2)C1 (stereo not given) | inconclusive [inhibitor, partial curve, poor fit] | –
Cc1oc(-c2ccccc2)nc1Cn1c(SCc2cccc(C(F)(F)F)c2)nc2cccnc21 | inconclusive [inhibitor, partial curve, poor fit] | –
Cc1cccc(NS(=O)(=O)c2ccc3[nH]c(=O)[nH]c3c2)c1C | – | inactive: -22.4%
O=C(Cc1ccc(NC(=O)N2CCCCc3ccccc32)cc1)NCc1ccccc1Br | inconclusive [inhibitor, single point] | –
Cc1cccc(CCNC(=O)C2CCC(CNS(=O)(=O)c3c(C)cc(C)cc3C)CC2)c1 (stereo not given) | inconclusive [inhibitor, partial curve] | –
COc1ccc(CC(=O)NCCc2sc(-c3ccc(Cl)cc3)nc2C)cc1OC | – | inactive: 7.75%
COc1ccccc1C(=O)Nc1ccc(NC(=O)c2cccs2)cc1 | inconclusive [inhibitor, partial curve, poor fit] | –
COc1cc(-c2nc3ccccn3c2Nc2ccccc2C)ccc1O | inconclusive [inhibitor, partial curve] | –
O=C(c1cc(Cc2n[nH]c(=O)c3ccccc23)ccc1F)N1CCCNCC1 | – | inactive: 0.721%
